About 2,200 (0.71%) of roughly 310,000 compounds showed an effect of 50% or more. Effects have a minus sign here. This is one part of the list.
molecular target: human ether-à-go-go-related gene (hERG) potassium channel (human, UniProt Q12809); assay: primary screen, population patch clamp on CHO cells stably expressing hERG
Sequence (Q12809 whole entry, looked up): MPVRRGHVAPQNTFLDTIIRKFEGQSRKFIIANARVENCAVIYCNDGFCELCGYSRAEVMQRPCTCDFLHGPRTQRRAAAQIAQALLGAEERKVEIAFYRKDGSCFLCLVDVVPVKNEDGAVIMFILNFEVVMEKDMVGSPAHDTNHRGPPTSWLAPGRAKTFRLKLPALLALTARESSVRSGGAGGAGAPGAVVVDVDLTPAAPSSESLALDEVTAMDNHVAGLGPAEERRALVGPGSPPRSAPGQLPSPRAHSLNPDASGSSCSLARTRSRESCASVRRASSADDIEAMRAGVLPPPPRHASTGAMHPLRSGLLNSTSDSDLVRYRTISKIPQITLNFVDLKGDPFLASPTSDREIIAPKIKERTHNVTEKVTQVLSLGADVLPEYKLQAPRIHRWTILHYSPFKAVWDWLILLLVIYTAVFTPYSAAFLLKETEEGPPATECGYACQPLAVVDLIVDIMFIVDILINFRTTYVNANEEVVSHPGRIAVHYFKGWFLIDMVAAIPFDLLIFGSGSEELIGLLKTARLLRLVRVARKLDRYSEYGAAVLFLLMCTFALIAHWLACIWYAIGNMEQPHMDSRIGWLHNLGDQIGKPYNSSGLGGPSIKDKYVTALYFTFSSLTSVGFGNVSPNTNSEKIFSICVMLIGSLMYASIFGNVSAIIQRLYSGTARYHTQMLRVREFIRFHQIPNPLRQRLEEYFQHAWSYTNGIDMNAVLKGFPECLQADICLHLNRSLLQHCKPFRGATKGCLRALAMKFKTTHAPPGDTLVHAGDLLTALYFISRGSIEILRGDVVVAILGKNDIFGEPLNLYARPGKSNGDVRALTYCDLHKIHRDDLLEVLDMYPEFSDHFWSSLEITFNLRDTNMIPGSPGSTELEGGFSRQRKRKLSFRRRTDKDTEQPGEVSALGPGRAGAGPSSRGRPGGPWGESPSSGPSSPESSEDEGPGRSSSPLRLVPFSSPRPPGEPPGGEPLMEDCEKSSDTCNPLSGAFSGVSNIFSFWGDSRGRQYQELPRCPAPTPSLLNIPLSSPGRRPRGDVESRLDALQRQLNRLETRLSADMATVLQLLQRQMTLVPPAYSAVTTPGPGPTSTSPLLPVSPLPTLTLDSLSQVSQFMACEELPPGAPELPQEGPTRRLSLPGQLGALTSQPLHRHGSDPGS

First: COc1ccc(O)c(/C=N/N2CCCCC2)c1
Second: COC(=O)c1ccc(C(=O)OC)c(NC(=O)CN2CCCCC2)c1
The “hERG current change (%, negative = inhibition) at 1uM” value of the first is lower: 6.85% for the first, 12.7% for the second.

First: O=C(Nc1ccc(F)cc1)Nc1cnccn1
Second: CCCC(=O)Nc1ccc(C(=O)Nc2cccc(OC)c2)cc1
The “hERG current change (%, negative = inhibition) at 1uM” value of the first is higher: 14% for the first, 5.91% for the second.

Compared with `Cc1cc(C)c([N+](=O)[O-])cc1NC(=O)CCS(=O)(=O)c1ccccc1`, `CCCC(=O)Nc1ccc(Cl)c(NC(=O)c2ccc([N+](=O)[O-])cc2Cl)c1` is higher in “hERG current change (%, negative = inhibition) at 1uM” value: -3.95% for the first, -1.77% for the second.

Going from `CCn1c(SCC(=O)Nc2cc(C)on2)nnc1-c1ccncc1` to `CCn1c(SCc2ccc(C#N)cc2)nnc1-c1ccc(S(=O)(=O)N2CCCCC2)cc1`, the “hERG current change (%, negative = inhibition) at 1uM” value falls from 16.3% to -26.7%.

First: COc1ccccc1N1CCN(C(=O)CN(Cc2ccccc2)S(C)(=O)=O)CC1
Second: O=C(NCC(=O)N1CCN(S(=O)(=O)c2ccccc2)CC1)c1ccc(Br)o1
The “hERG current change (%, negative = inhibition) at 1uM” value of the first is lower: -7.63% for the first, 4.64% for the second.

Compared with `Cc1ccccc1NC(=O)C1CCCN(C(=O)NCc2ccccc2)C1` (stereo not shown), `O=C(CCc1cccc(Cl)c1)N1CCCC(Nc2ccccc2)C1` (stereo not shown) is higher in “hERG current change (%, negative = inhibition) at 1uM” value: 13.6% for the first, 16.4% for the second.

Compared with `Cc1cc(C)cc(N(CC(=O)O)S(=O)(=O)c2c(C)noc2C)c1`, `CCOC(=O)C1(Cc2ccccc2C)CCCN(C(=O)CCc2c(C)noc2C)C1` (stereo not shown) is lower in “hERG current change (%, negative = inhibition) at 1uM” value: 6.63% for the first, -4.16% for the second.

First: CCOC(=O)C1=C(COC(=O)C(CC)Oc2ccccc2)NC(=O)NC1C (stereo not shown)
Second: CCOC(=O)c1[nH]c2ccccc2c1NC(=O)CCN1CCN(C(=O)OCC)CC1
The “hERG current change (%, negative = inhibition) at 1uM” value of the first is higher: 6.26% for the first, 4.67% for the second.

`Cc1ccc(NC(=S)N2CCCC(CO)C2)c(C)c1` (stereo not shown) and `CCOC(=O)C1CCN(C(=O)c2ccccc2NS(=O)(=O)c2ccc(C)cc2)CC1` are the same in “hERG current change (%, negative = inhibition) at 1uM” value: 12.6% for the first, 12.6% for the second.

Going from `Cc1nc2ccccc2c(=O)n1NC(=O)c1ccc(F)cc1Cl` to `O=C(O)Cc1cn(Cc2ccc(F)cc2)c2ccccc12`, the “hERG current change (%, negative = inhibition) at 1uM” value rises from 2.12% to 12.2%.

Going from `COc1ccccc1C(c1nnnn1C(C)(C)C)N1CCN(C(=O)c2ccco2)CC1` (stereo not shown) to `COc1cccc(C(c2sc3ncnn3c2O)N2CCc3ccccc3C2)c1` (stereo not shown), the “hERG current change (%, negative = inhibition) at 1uM” value rises from -13.2% to 8.06%.

First: COc1ccc(-c2n[nH]c(=S)o2)c(OC)c1
Second: COc1ccc(OC)c(C2CC(=O)NC(SC)=C2C#N)c1 (stereo not shown)
The “hERG current change (%, negative = inhibition) at 1uM” value of the first is higher: 18.2% for the first, 7.92% for the second.

Going from `COc1cccc2cc(C(=O)C3=C(O)C(=O)N(c4cc(C)on4)C3c3cccs3)oc12` (stereo not shown) to `COc1ccc(NC(=O)CSc2nc(O)cc(=O)n2-c2ccccc2OC)cc1`, the “hERG current change (%, negative = inhibition) at 1uM” value rises from 14.8% to 17%.

First: Cc1onc(-c2c(Cl)cccc2Cl)c1NC(=O)N1CCSCC1
Second: O=[N+]([O-])c1cc(/C=N/OCc2c(Cl)cccc2Cl)ccc1N1CCOCC1
The “hERG current change (%, negative = inhibition) at 1uM” value of the first is higher: 5.17% for the first, 0.632% for the second.

Going from `Cc1ccc(/C=N/NC(=O)CN2CCN(Cc3ccccc3)CC2)o1` to `Cc1cccc(CN2CCN(CCCc3ccccc3)CC2)c1.O=C(O)C(=O)O`, the “hERG current change (%, negative = inhibition) at 1uM” value falls from 7.9% to -9.66%.

Compared with `O=C(C1CCCN(Cc2ccncc2)C1)N1CCc2ccccc2C1.O=C(O)C(=O)O` (stereo not shown), `O=c1cc(N2CCc3ccccc3C2)[nH]c(=O)n1-c1ccc(Br)cc1` is lower in “hERG current change (%, negative = inhibition) at 1uM” value: 7.77% for the first, -3.08% for the second.

Compared with `C=CCCC(=O)Nc1nc(C)c(-c2csc(Nc3ccc(Cl)cc3Cl)n2)s1`, `N#Cc1c(SCC(=O)Nc2nc3ccccc3s2)sc2c(O)cc(=O)[nH]c12` is higher in “hERG current change (%, negative = inhibition) at 1uM” value: 14.4% for the first, 19.4% for the second.

First: O=C(CO/N=C/c1ccccc1OC(F)F)N1CCc2ccccc21
Second: O=C(/C=C/c1ccccc1)Oc1cccc2cccnc12
The “hERG current change (%, negative = inhibition) at 1uM” value of the first is lower: 5.34% for the first, 14.7% for the second.

First: COc1ccc(-c2ccc(OC(=O)NC3CCS(=O)(=O)C3)cc2)cc1 (stereo not shown)
Second: CC(=O)Oc1ccc(-c2cc3ccc(OC(C)=O)cc3oc2=O)cc1
The “hERG current change (%, negative = inhibition) at 1uM” value of the first is higher: 13.1% for the first, 9.98% for the second.

Compared with `CC(=O)Oc1ccc(C2(C)CC(C)(C)Oc3cc(OC(C)=O)ccc32)c(OC(C)=O)c1` (stereo not shown), `COC(=O)c1ccc(NC(=O)C2CCN(C(=O)c3cc(OC)c(OC)c(OC)c3)CC2)cc1` is lower in “hERG current change (%, negative = inhibition) at 1uM” value: 16.4% for the first, 7.14% for the second.

Going from `O=C(NCc1ccc(Cl)cc1)c1ccc(Br)o1` to `CC(=O)Cc1nsc(NC(=O)c2ccc(-c3ccc(F)cc3)o2)n1`, the “hERG current change (%, negative = inhibition) at 1uM” value rises from 0.112% to 3.77%.

Compared with `CCN1CCN(CCNC(=O)c2ccc3c(c2)NC(=O)/C(=C\c2ccc(OC)c(OC)c2)S3)CC1`, `COc1cc(/C=C2\Oc3cc(O)ccc3C2=O)ccc1O` is lower in “hERG current change (%, negative = inhibition) at 1uM” value: 17.4% for the first, 11.8% for the second.

Compared with `O=C(O)CCn1c(=S)oc2ccccc21`, `Cc1cccc(C2NC(=O)c3ccccc3O2)c1` (stereo not shown) is higher in “hERG current change (%, negative = inhibition) at 1uM” value: 6.49% for the first, 9.89% for the second.

Going from `C=CCn1c(-c2ccc(OC)cc2)csc1=Nc1c(C)n(C)n(-c2ccccc2)c1=O` to `COc1ccc(-c2csc3ncnc(N4CCN(c5ccccc5)CC4)c23)cc1`, the “hERG current change (%, negative = inhibition) at 1uM” value rises from -0.904% to 11.6%.

First: CC(C)c1nc(SCC(=O)NCC2CCCO2)c2c(=O)n(C)c(=O)n(C)c2n1 (stereo not shown)
Second: CN1C(=O)NC(=O)C(C)(C2=CCCCC2)C1=O (stereo not shown)
The “hERG current change (%, negative = inhibition) at 1uM” value of the first is lower: 9.01% for the first, 13.8% for the second.

Compared with `O=C(COC(=O)CC(c1ccccc1)c1ccccc1)Nc1c(F)cccc1F`, `C/C(=N\NC(=O)COc1ccccc1-c1ccccc1)c1ccccn1` is higher in “hERG current change (%, negative = inhibition) at 1uM” value: -2.04% for the first, 5.52% for the second.

First: CNc1ccc2c3c(cccc13)C(=O)N(C)C2=O
Second: CN1C(=O)C(=Cc2ccccc2Oc2ccc(Cl)c(F)c2)C(=O)N(C)C1=O
The “hERG current change (%, negative = inhibition) at 1uM” value of the first is lower: 5.7% for the first, 8.08% for the second.

Compared with `O=C(CSc1nc2[nH]ncc2c(=O)[nH]1)Nc1cccc(Cl)c1`, `CSc1nc(O)c(C(c2ccc(O)cc2)c2c(O)nc(SC)[nH]c2=O)c(=O)[nH]1` is higher in “hERG current change (%, negative = inhibition) at 1uM” value: 9.25% for the first, 13.3% for the second.

First: CCC1C(=O)n2nc(-c3ccccc3)cc2N=C1C (stereo not shown)
Second: O=C1C2C3CCCC3=C3CCCC3C2C(=O)N1c1ccccc1 (stereo not shown)
The “hERG current change (%, negative = inhibition) at 1uM” value of the first is higher: 3.06% for the first, 2.04% for the second.

Compared with `Cc1ccc(S(=O)(=O)N2CCN(C(=O)c3cc(-c4cccs4)nn3-c3ccccc3)CC2)cc1`, `CC(C)[C@H](NC(=O)c1ccccc1)C(=O)OCC(=O)c1ccc(S(=O)(=O)N2CCCCC2)cc1` is lower in “hERG current change (%, negative = inhibition) at 1uM” value: 11.7% for the first, -4.45% for the second.

Going from `O=C(Nc1nncs1)c1ccc(Br)c(S(=O)(=O)N2CCCC2)c1` to `Cc1ccc(S(=O)(=O)N2CCN(C(=O)CN3C(=O)NC4(CCCC4)C3=O)CC2)c(C)c1`, the “hERG current change (%, negative = inhibition) at 1uM” value rises from -1.87% to 4.99%.

First: CN(C)C(=O)N1CCN(C(=O)N2CCOCC2)CC1
Second: CC(=O)N1CCC(C(=O)c2ccc(Cl)cc2)CC1
The “hERG current change (%, negative = inhibition) at 1uM” value of the first is higher: 17.4% for the first, 10.8% for the second.

Going from `COc1ccc(OC)c(NC(=O)CCC(=O)Nc2nnc(C(C)C)s2)c1` to `COc1cc(OC)cc(-c2nnc(NC(=O)Cc3ccc(F)cc3)o2)c1`, the “hERG current change (%, negative = inhibition) at 1uM” value falls from 18.7% to 18.6%.

Going from `FC(F)(F)c1cc(N2CCOCC2)nc(-c2ccccc2)n1` to `Cn1ncc2c(NCc3cccc(C(F)(F)F)c3)c(C(=O)O)cnc21`, the “hERG current change (%, negative = inhibition) at 1uM” value rises from 5.48% to 18.5%.

Compared with `CC(NC(=O)c1ccc(CS(=O)(=O)c2cccc(C(F)(F)F)c2)o1)c1ccc2c(c1)OCCO2` (stereo not shown), `CCC1Oc2ccccc2C(=O)N(CC(=O)c2ccc3c(c2)OCCO3)C1=O` (stereo not shown) is higher in “hERG current change (%, negative = inhibition) at 1uM” value: 10.1% for the first, 15.6% for the second.

First: Cc1ccc(NC(=O)NNC(=O)C2CC(c3cccs3)=NO2)cc1 (stereo not shown)
Second: Cc1ccc(S(=O)(=O)NC(=O)Nc2ccc(Cl)cn2)cc1
The “hERG current change (%, negative = inhibition) at 1uM” value of the first is higher: 15.6% for the first, 5.68% for the second.

First: CC(C)(C)c1ccc(C(=O)NCCC(=O)NCc2ccco2)cc1
Second: CCOC(=O)c1ccc(-n2c(N)c(C(=O)NCc3ccco3)sc2=S)cc1
The “hERG current change (%, negative = inhibition) at 1uM” value of the first is lower: -11.4% for the first, 0.902% for the second.

Going from `O=C(Nc1nc2ccc(SC(F)F)cc2s1)c1ccc2c(c1)S(=O)(=O)c1ccccc1C2=O` to `CC(=O)c1ccc(NC(=O)COC(=O)c2c[nH]c3ccccc23)cc1`, the “hERG current change (%, negative = inhibition) at 1uM” value rises from -4% to 14.4%.

First: O=C(c1ccc([N+](=O)[O-])cc1)N1CCSC1c1cccc(Cl)c1 (stereo not shown)
Second: C/C(Cn1cnc([N+](=O)[O-])n1)=N\NC(=O)c1ccc(Br)cc1
The “hERG current change (%, negative = inhibition) at 1uM” value of the first is lower: -14.7% for the first, -9.12% for the second.

Compared with `CCCc1nnc(NC(=O)OCC)s1`, `CCc1nnc(NC(=O)CN2CCN(Cc3ccccc3Cl)CC2)s1` is lower in “hERG current change (%, negative = inhibition) at 1uM” value: 13.3% for the first, 12.1% for the second.

Going from `COc1ccc(/C=C/C2=NNC(=O)CC2)cc1` to `COc1ccc(C2CNC(=O)C2)cc1OC1CCCC1` (stereo not shown), the “hERG current change (%, negative = inhibition) at 1uM” value falls from 9.55% to 1.74%.

First: C=CCNC(=O)COC(=O)c1ccccc1C(=O)N(C)C1CCCCC1
Second: C=CCNC(=O)NC(=O)COC(=O)CNS(=O)(=O)c1ccc(F)c(F)c1F
The “hERG current change (%, negative = inhibition) at 1uM” value of the first is higher: 9.53% for the first, 9.03% for the second.

First: CCC(C)NCCCCOc1ccc(C)cc1[N+](=O)[O-].O=C(O)C(=O)O (stereo not shown)
Second: CCN(CC)S(=O)(=O)c1cccc(-c2nnc(SCCOc3ccccc3C)o2)c1
The “hERG current change (%, negative = inhibition) at 1uM” value of the first is lower: 3.62% for the first, 6.48% for the second.

Going from `COc1cccc(/C=N/NC(=O)CSc2nnc(C)n2-c2ccccc2)c1O` to `O=C(Nc1ccc(C(=O)NCCCN2CCCCC2)cc1)C1=CSCCO1`, the “hERG current change (%, negative = inhibition) at 1uM” value rises from 2.78% to 12.6%.
